From the supplement of paper PMC10369915
The list shows a part of the results. Rule as the data show it: active = 3.2 or more and inactive = the rest. Only a few entries rise above the background.

What was measured:
Test in all cases: enrichment score (SH2-bound / input frequency) (ratio); bacterial display of known human phosphotyrosine sites (pTyr-Var adds point mutants) read by sequencing; higher = stronger binding; tyrosines were phosphorylated by kinases first
Details in all cases: peptide library: pTyr-Var
[1] = target: SHP2 C-SH2 domain E139D
[2] = target: SHP2 C-SH2 domain wild-type
[3] = target: SHP2 N-SH2 domain L43F
[4] = target: SHP2 N-SH2 domain T42A
[5] = target: SHP2 N-SH2 domain T52S
[6] = target: SHP2 N-SH2 domain wild-type

Measured: enrichment score
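Also: displayed peptides selected on beads carrying the immobilized SH2 domain, with library peptides lacking any tyrosine serving as negative controls.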

LITILYIGFLG [KCNQ1_Y267_T265I]
active: [1] 3.64 | [2] 4.42 | [3] 4.08 | [5] 3.9 | [6] 3.89
inactive: [4] 2.89

GKSFIYAAFHA [KCNT1_Y563_T562I]
inactive: [1] 2.1 | [2] 2.47 | [3] 2.25 | [4] 1.89 | [5] 2.29 | [6] 2.23

SAEEDYIADAK [KCNT1_Y876_M877I]
inactive: [1] 0.618 | [2] 0.62 | [3] 0.428 | [4] 0.51 | [5] 0.664 | [6] 0.625

KDFNKYVAFIE [KDM4B_Y31_YF]
inactive: [1] 0.957 | [2] 0.944 | [3] 0.715 | [4] 0.804 | [5] 0.861 | [6] 0.826

NKFVAYIESQG [KDM4B_Y34_YF]
inactive: [1] 1.08 | [2] 0.944 | [3] 0.949 | [4] 0.971 | [5] 0.973 | [6] 0.998

AKYLGYPPPEI [KDR_Y357]
inactive: [1] 0.828 | [2] 0.972 | [3] 0.791 | [4] 0.717 | [5] 1.1 | [6] 1.19

VKYLGYPPPEI [KDR_Y357_A352V]
inactive: [1] 0.784 | [2] 1.35 | [3] 0.831 | [4] 2.76 | [5] 0.987 | [6] 0.846

RQGKDYVGAIP [KDR_Y951]
inactive: [1] 0.652 | [2] 0.668 | [3] 0.691 | [4] 0.481 | [5] 0.617 | [6] 0.728

TLMNAYSSRSH [KIF11_Y231]
inactive: [1] 0.795 | [2] 0.572 | [3] 0.722 | [4] 0.519 | [5] 0.752 | [6] 0.703

DHKRQYELLKL [KIF4B_Y684_R680H]
inactive: [1] 1.13 | [2] 0.741 | [3] 0.815 | [4] 0.696 | [5] 1 | [6] 0.886

SSYDTYHLSRE [KIR3DL2_Y253_I252T]
inactive: [1] 0.557 | [2] 0.442 | [3] 0.528 | [4] 0.453 | [5] 0.5 | [6] 0.584

PQEVTYAQLDH [KIR3DL2_Y398]
active: [2] 3.25 | [3] 8.1 | [4] 10.4 | [5] 6.9 | [6] 4.16
inactive: [1] 1.67

RTVDVYFGPQM [KIRREL3_Y332_R336Q]
inactive: [1] 0.96 | [2] 1.08 | [3] 1.05 | [4] 0.881 | [5] 0.955 | [6] 1.75

RLRKFHLGKFL [KLB_Y906_Y906H_YF]
inactive: [1] 0.341 | [2] 0.494 | [3] 0.292 | [4] 0.269 | [5] 0.375 | [6] 0.375

YYLGKYLQEVL [KLB_Y910]
inactive: [1] 1.4 | [2] 1.51 | [3] 1.49 | [4] 1.42 | [5] 1.37 | [6] 1.36

YHLGKYLQEVL [KLB_Y910_Y906H]
inactive: [1] 0.919 | [2] 1.03 | [3] 0.83 | [4] 0.692 | [5] 0.946 | [6] 0.967

FFLGKYLQEVL [KLB_Y910_YF]
inactive: [1] 3.04 | [2] 2.32 | [3] 3.16 | [4] 2.01 | [5] 2.73 | [6] 3.16

NFAKMYCNPDA [KNL1_Y489_YF]
inactive: [1] 0.518 | [2] 0.596 | [3] 0.459 | [4] 0.637 | [5] 0.577 | [6] 0.582

ENQEIYQKAFD [KPNA1_Y493]
inactive: [1] 0.604 | [2] 0.581 | [3] 0.738 | [4] 0.637 | [5] 0.616 | [6] 0.771

HFVDEYDLTIE [KRAS_Y32_P34L]
inactive: [1] 0.926 | [2] 0.898 | [3] 0.968 | [4] 0.94 | [5] 0.667 | [6] 1.2

HFVDEYDRTIE [KRAS_Y32_P34R]
inactive: [1] 0.62 | [2] 0.818 | [3] 0.794 | [4] 0.637 | [5] 0.607 | [6] 1.02

GGMTEYELVVV [KRAS_Y4_K5E]
inactive: [1] 0.929 | [2] 0.754 | [3] 0.85 | [4] 0.654 | [5] 1.05 | [6] 0.981

TMEDSYRKQVV [KRAS_Y40_I36M]
inactive: [1] 1.04 | [2] 0.539 | [3] 0.734 | [4] 0.369 | [5] 0.473 | [6] 0.546

TGQEEYSAMRD [KRAS_Y64_A59T]
inactive: [1] 0.412 | [2] 0.438 | [3] 0.346 | [4] 0.397 | [5] 0.353 | [6] 0.508

AGHEEYSAMRD [KRAS_Y64_Q61H]
inactive: [1] 0.441 | [2] 0.392 | [3] 0.549 | [4] 0.429 | [5] 0.508 | [6] 0.607

SGGGSYGSGGG [KRT1_Y539]
inactive: [1] 0.671 | [2] 0.705 | [3] 0.618 | [4] 0.446 | [5] 0.512 | [6] 0.559

DRLASYSDKVR [KRT10_Y160_L161S]
inactive: [1] 0.699 | [2] 0.747 | [3] 0.619 | [4] 0.641 | [5] 0.649 | [6] 0.74

DRLASNLDKVR [KRT10_Y160_Y160N]
inactive: [1] 0.667 | [2] 0.777 | [3] 0.637 | [4] 0.662 | [5] 0.701 | [6] 0.75

LESETYRRLLD [KRT12_Y429_I426S]
inactive: [1] 0.52 | [2] 0.873 | [3] 0.775 | [4] 0.612 | [5] 0.796 | [6] 0.625

LEIETYPRLLD [KRT12_Y429_R430P]
inactive: [1] 0.674 | [2] 0.796 | [3] 1.01 | [4] 0.788 | [5] 0.91 | [6] 0.81

DRLASYPDKVR [KRT14_Y129_L130P]
inactive: [1] 0.665 | [2] 0.664 | [3] 0.655 | [4] 0.6 | [5] 0.712 | [6] 1.01

DRLASYLDKVP [KRT14_Y129_R134P]
inactive: [1] 0.832 | [2] 0.732 | [3] 1.04 | [4] 0.718 | [5] 0.762 | [6] 0.979

QEIATCRRLLE [KRT14_Y415_Y415C]
inactive: [1] 0.419 | [2] 0.387 | [3] 0.444 | [4] 0.319 | [5] 0.29 | [6] 0.397

SSSGAYGGGYG [KRT19_Y61]
inactive: [1] 0.46 | [2] 0.467 | [3] 0.431 | [4] 0.385 | [5] 0.402 | [6] 0.546

AYGGGYGGVLT [KRT19_Y65]
inactive: [1] 0.617 | [2] 0.706 | [3] 0.657 | [4] 0.591 | [5] 0.622 | [6] 0.817

GFGGGYGGVLT [KRT19_Y65_A60G_YF]
inactive: [1] 1.05 | [2] 0.765 | [3] 0.895 | [4] 0.758 | [5] 0.837 | [6] 0.987

ATGGFYSYGGG [KRT24_Y120]
inactive: [1] 0.737 | [2] 0.802 | [3] 0.863 | [4] 0.734 | [5] 0.688 | [6] 0.798
